# This is one part of the list. Sequences were assembled here from the parent chain. Values near 0.05 are background.
# B1: TEV protease; numbered along this chain (parent)
# chain: MGESLFKGPRDYNPISSSICHLTNESDGHTTSLYGIGFGPFIITNKHLFRRNNGTLVVQSLHGVFKVKDTTTLQQHLVDGRDMIIIRMPKDFPPFPQKLKFREPQREERICLVTTNFQTKSMSSMVSDTSCTFPSGDGIFWKHWIQTKDGQCGSPLVSTRDGFIVGIHSASNFTNTNNYFTSVPKNFMELLTNQEAQQWVSGWRLNADSVLWGGHKVFMVKPEEPFQPVKEATQL
# Variants of: B1
# Assay: raw area under fraction-flipped curve 0-4 h after induction (AUC4h, not background-subtracted), DNA-recorder readout of cleavage of the substrate (dimensionless); higher = more cleavage of the substrate by the protease variant
# Conditions: temperature: 34 °C; time window: 0-4 h after rhamnose induction
# 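Also: Bxb1 expression induced with 0.2% (w/v) L-rhamnose at OD600 near 0.5, cultures sampled hourly, flipped fraction per protease–substrate barcode pair counted by paired-end Illumina sequencing.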
Variant,area with substrate ENLYFES,area with substrate ENLYFFS,area with substrate ENLYFHS,area with substrate ENLYFLS,area with substrate ENLYFMS,area with substrate ENLYFNS,area with substrate ENLYFPS,area with substrate ENLYFRS,area with substrate ENLYFVS,area with substrate ENLYFYS
MGESLFKGPRDYNPISSSICHLTNESDGHTTSLYGIGFGPFIITNKHLFRRNNGTLVVQSLHGVFKVKDTTTLQQHLVDGRDLIIIRMPKDFPPFPQKLKFREPQREERICLVTTNFQTKSMSSMVSDTSCTFPSGDGIFWKHWIQTKDGQCGSPLVSTRDGFIVGIHSASNFTNTNNYFTSVPKNFMELLTNQEAQQWVSGWRLNADSVLWGGHKVFMVKPEEPFQPVKEATQL [M83L],0.0665,0.0627,0.0512,0.0735,0.0602,0.0429,0.0584,0.0539,0.102,0.0506
MGESLFKGPRDYNPISSSICHLTNESDGHTTSLYGIGFGPFIITNKHLFRRNNGTLVVQSLHGVFKVKDTTTLQQHLVDGRDMIIIRMPADFPPFPQKLKFREPQREERICLVTTNFQTKSMSSMVSDTSCTFPSGDGIFWKHWIQTKDGQCGSPLVSTRDGFIVGIHSASNFTNTNNYFTSVPKNFMELLTNQEAQQWVSGWRLNADSVLWGGHKVFMVKPEEPFQPVKEATQL [K90A],0.0771,0.0727,0.0694,,,,,0.0592,,
MGESLFKGPRDYNPISSSICHLTNESDGHTTSLYGIGFGPFIITNKHLFRRNNGTLVVQSLHGVFKVKDTTTLQQHLVDGRDMIIIRMPKDFPPFPTKLKFREPQREERICLVTTNFQTKSMSSMVSDTSCTFPSGDGIFWKHWIQTKDGQCGSPLVSTRDGFIVGIHSASNFTNTNNYFTSVPKNFMELLTNQEAQQWVSGWRLNADSVLWGGHKVFMVKPEEPFQPVKEATQL [Q97T],0.069,0.0653,,,,,0.0575,0.0538,,
MGESLFKGPRDYNPISSSICHLTNESDGHTTSLYGIGFGPFIITNKHLFRRNNGTLVVQSLHGVFKVKDTTTLQQHLVDGRDMIIIRMPKDFKPFPQKLKFREPQREERICLVTTNFQTKSMSSMVSDTSCTFPSGDGIFWKHWIQTKDGQCGSPLVSTRDGFIVGIHSASNFTNTNNYFTSVPKNFMELLTNQEAQQWVSGWRLNADSVLWGGHKVFMVKPEEPFQPVKEATQL [P93K],0.085,,,,,,,,,
MGESLFKGPRDYNPISSSICHLTNESDGHTTSLYGIGFGPFIITNKHLFRRNNGTLVVQSLHGVFKVKDTTTLQQHLVDGRDMIIIRMPKDFWPFPQKLKFREPQREERICLVTTNFQTKSMSSMVSDTSCTFPSGDGIFWKHWIQTKDGQCGSPLVSTRDGFIVGIHSASNFTNTNNYFTSVPKNFMELLTNQEAQQWVSGWRLNADSVLWGGHKVFMVKPEEPFQPVKEATQL [P93W],0.0568,0.0681,0.0416,,,0.0617,0.0583,0.0603,,
MGESLFKGPRDYNPISSSICHLTNESDGHTTSLYGIGFGPFIITNKHLFRRNNGTLVVQSLHGVFKVKDTTTLQQHLVDGRDMIHIRMPKDFPPFPQKLKFREPQREERICLVTTNFQTKSMSSMVSDTSCTFPSGDGIFWKHWIQTKDGQCGSPLVSTRDGFIVGIHSASNFTNTNNYFTSVPKNFMELLTNQEAQQWVSGWRLNADSVLWGGHKVFMVKPEEPFQPVKEATQL [I85H],0.0519,0.054,,0.0561,0.0501,,0.0538,,,
MGESLFKGPRDYNPISSSICHLTNESDGHTTSLYGIGFGPFIITNKHLFRRNNGTLVVQSLHGVFKVKDTTTLQQHLVDGRDMIIIRLPKDFPPFPQKLKFREPQREERICLVTTNFQTKSMSSMVSDTSCTFPSGDGIFWKHWIQTKDGQCGSPLVSTRDGFIVGIHSASNFTNTNNYFTSVPKNFMELLTNQEAQQWVSGWRLNADSVLWGGHKVFMVKPEEPFQPVKEATQL [M88L],0.0537,,0.0585,,,,0.0529,,0.0469,
MGESLFKGPRDYNPISSSICHLTNESDGHTTSLYGIGFGPFIITNKHLFRRNNGTLVVQSLHGVFKVKDTTTLQQHLVDGRDMIIIRMPKDFPPFPQKEKFREPQREERICLVTTNFQTKSMSSMVSDTSCTFPSGDGIFWKHWIQTKDGQCGSPLVSTRDGFIVGIHSASNFTNTNNYFTSVPKNFMELLTNQEAQQWVSGWRLNADSVLWGGHKVFMVKPEEPFQPVKEATQL [L99E],0.057,,,,,,,,,0.0809
MGESLFKGPRDYNPISSSICHLTNESDGHTTSLYGIGFGPFIITNKHLFRRNNGTLVVQSLHGVFKVKDTTTLQQHLVDGRDMIIIRMPKDFPPFPQKIKFREPQREERICLVTTNFQTKSMSSMVSDTSCTFPSGDGIFWKHWIQTKDGQCGSPLVSTRDGFIVGIHSASNFTNTNNYFTSVPKNFMELLTNQEAQQWVSGWRLNADSVLWGGHKVFMVKPEEPFQPVKEATQL [L99I],0.0254,0.0678,0.0474,,0.0634,0.0591,,0.0595,,
MGESLFKGPRDYNPISSSICHLTNESDGHTTSLYGIGFGPFIITNKHLFRRNNGTLVVQSLHGVFKVKDTTTLQQHLVDGRMMIIIRMPKDFPPFPQKLKFREPQREERICLVTTNFQTKSMSSMVSDTSCTFPSGDGIFWKHWIQTKDGQCGSPLVSTRDGFIVGIHSASNFTNTNNYFTSVPKNFMELLTNQEAQQWVSGWRLNADSVLWGGHKVFMVKPEEPFQPVKEATQL [D82M],0.0515,0.0713,,0.0588,,0.0715,,,,
MGESLFKGPRDYNPISSSICHLTNESDGHTTSLYGIGFGPFIITNKHLFRRNNGTLVVQSLHGVFKVKDTTTLQQHLVDLRDMIIIRMPKDFPPFPQKLKFREPQREERICLVTTNFQTKSMSSMVSDTSCTFPSGDGIFWKHWIQTKDGQCGSPLVSTRDGFIVGIHSASNFTNTNNYFTSVPKNFMELLTNQEAQQWVSGWRLNADSVLWGGHKVFMVKPEEPFQPVKEATQL [G80L],0.0671,,0.0633,,0.0624,0.0732,0.0627,,0.0617,

# Same assay, conditions: temperature: 34 °C; time window: 0-4 h after rhamnose induction
Variant,area with substrate ENLYFKS,area with substrate ENLYFIS,area with substrate ENLYFTS,area with substrate ENLYFGS,area with substrate ENLYFWS,area with substrate ENLYFSS
MGESLFKGPRDYNPISSSICHLTNESDGHTTSLYGIGFGPFIITNKHLFRRNNGTLVVQSLHGVFKVKDTTTLQQHLVDGRDMIIIRMPADFPPFPQKLKFREPQREERICLVTTNFQTKSMSSMVSDTSCTFPSGDGIFWKHWIQTKDGQCGSPLVSTRDGFIVGIHSASNFTNTNNYFTSVPKNFMELLTNQEAQQWVSGWRLNADSVLWGGHKVFMVKPEEPFQPVKEATQL [K90A],0.0911,,,,,
MGESLFKGPRDYNPISSSICHLTNESDGHTTSLYGIGFGPFIITNKHLFRRNNGTLVVQSLHGVFKVKDTTTLQQHLVDGRDMIIIRMPKDFPPFPTKLKFREPQREERICLVTTNFQTKSMSSMVSDTSCTFPSGDGIFWKHWIQTKDGQCGSPLVSTRDGFIVGIHSASNFTNTNNYFTSVPKNFMELLTNQEAQQWVSGWRLNADSVLWGGHKVFMVKPEEPFQPVKEATQL [Q97T],,0.0545,0.0431,,,
MGESLFKGPRDYNPISSSICHLTNESDGHTTSLYGIGFGPFIITNKHLFRRNNGTLVVQSLHGVFKVKDTTTLQQHLVDGRDMIIIRMPKDFWPFPQKLKFREPQREERICLVTTNFQTKSMSSMVSDTSCTFPSGDGIFWKHWIQTKDGQCGSPLVSTRDGFIVGIHSASNFTNTNNYFTSVPKNFMELLTNQEAQQWVSGWRLNADSVLWGGHKVFMVKPEEPFQPVKEATQL [P93W],0.0648,0.0609,,,,
MGESLFKGPRDYNPISSSICHLTNESDGHTTSLYGIGFGPFIITNKHLFRRNNGTLVVQSLHGVFKVKDTTTLQQHLVDGRDMIHIRMPKDFPPFPQKLKFREPQREERICLVTTNFQTKSMSSMVSDTSCTFPSGDGIFWKHWIQTKDGQCGSPLVSTRDGFIVGIHSASNFTNTNNYFTSVPKNFMELLTNQEAQQWVSGWRLNADSVLWGGHKVFMVKPEEPFQPVKEATQL [I85H],,0.0518,,0.0515,,
MGESLFKGPRDYNPISSSICHLTNESDGHTTSLYGIGFGPFIITNKHLFRRNNGTLVVQSLHGVFKVKDTTTLQQHLVDGRDMIIIRLPKDFPPFPQKLKFREPQREERICLVTTNFQTKSMSSMVSDTSCTFPSGDGIFWKHWIQTKDGQCGSPLVSTRDGFIVGIHSASNFTNTNNYFTSVPKNFMELLTNQEAQQWVSGWRLNADSVLWGGHKVFMVKPEEPFQPVKEATQL [M88L],0.0666,,0.0542,,0.0431,
MGESLFKGPRDYNPISSSICHLTNESDGHTTSLYGIGFGPFIITNKHLFRRNNGTLVVQSLHGVFKVKDTTTLQQHLVDGRDMIIIRMPKDFPPFPQKEKFREPQREERICLVTTNFQTKSMSSMVSDTSCTFPSGDGIFWKHWIQTKDGQCGSPLVSTRDGFIVGIHSASNFTNTNNYFTSVPKNFMELLTNQEAQQWVSGWRLNADSVLWGGHKVFMVKPEEPFQPVKEATQL [L99E],,0.0566,0.0517,,0.053,
MGESLFKGPRDYNPISSSICHLTNESDGHTTSLYGIGFGPFIITNKHLFRRNNGTLVVQSLHGVFKVKDTTTLQQHLVDGRDMIIIRMPKDFPPFPQKIKFREPQREERICLVTTNFQTKSMSSMVSDTSCTFPSGDGIFWKHWIQTKDGQCGSPLVSTRDGFIVGIHSASNFTNTNNYFTSVPKNFMELLTNQEAQQWVSGWRLNADSVLWGGHKVFMVKPEEPFQPVKEATQL [L99I],,0.083,,,,
MGESLFKGPRDYNPISSSICHLTNESDGHTTSLYGIGFGPFIITNKHLFRRNNGTLVVQSLHGVFKVKDTTTLQQHLVDGRMMIIIRMPKDFPPFPQKLKFREPQREERICLVTTNFQTKSMSSMVSDTSCTFPSGDGIFWKHWIQTKDGQCGSPLVSTRDGFIVGIHSASNFTNTNNYFTSVPKNFMELLTNQEAQQWVSGWRLNADSVLWGGHKVFMVKPEEPFQPVKEATQL [D82M],,0.0456,0.0451,,0.0451,0.0356
MGESLFKGPRDYNPISSSICHLTNESDGHTTSLYGIGFGPFIITNKHLFRRNNGTLVVQSLHGVFKVKDTTTLQQHLVDLRDMIIIRMPKDFPPFPQKLKFREPQREERICLVTTNFQTKSMSSMVSDTSCTFPSGDGIFWKHWIQTKDGQCGSPLVSTRDGFIVGIHSASNFTNTNNYFTSVPKNFMELLTNQEAQQWVSGWRLNADSVLWGGHKVFMVKPEEPFQPVKEATQL [G80L],,0.0476,,,0.053,

# — the supplement of paper PMC12217912
